Here are results for 172 sequences from PMC6212790.

The other results are listed elsewhere or left out. At the low end of the ranking, values are background and their order means little.

For this assay, the target named is T1, GST-Rok-C97-191 (UniProt O34857).
T1 sequence: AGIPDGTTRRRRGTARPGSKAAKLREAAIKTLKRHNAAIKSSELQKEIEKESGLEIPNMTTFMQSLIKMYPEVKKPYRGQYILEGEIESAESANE
Nature of the assay: protein binding microarray.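 Also: rank score from −0.5 (least bound) to 0.5 (best bound).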 Conditions: Rok is a gene silencer of Bacillus subtilis; high values mean tight binding; most listed sequences are background and not binding sites; double strand, one strand shown.
With ACGGTACG, the binding signal was 0.00316 E-score.

CGCCTGAA displayed a binding signal of -0.161 E-score.

The sequence ACGTTCGG displayed a binding signal of 0.0487 E-score.

Consider ACCGCTAT, for which the binding signal worked out at 0.065 E-score.

AATGATAG showed a binding signal of 0.282 E-score.

On to ACTCAGAT, for which the binding signal was 0.211 E-score.

CAAAAAGG had a binding signal of -0.139 E-score.

Turning to AAAGGAAC, the binding signal is -0.206 E-score.

As for CAATAGGG, the binding signal was -0.0812 E-score.

GCGAAGAA displayed a binding signal of 0.0839 E-score.

As to TAGTAGGA, the binding signal is 0.252 E-score.

In the case of ATAAGCCG, the binding signal turned out to be 0.0878 E-score.

AACCGTAT: the binding signal stood at 0.132 E-score.

On to AAATGTGA, for which the binding signal was 0.158 E-score.

In turn, CGCACCGC registered a binding signal of -0.244 E-score.

Sequence AGTTATCG gave a binding signal of 0.253 E-score.

In turn, GTGTTAAC returned a binding signal of -0.009 E-score.

The sequence CGAGCCCC came in with a binding signal of -0.255 E-score.

As to AGCGTATA, the binding signal stood at 0.0511 E-score.

Consider AATGGTAC, for which the binding signal worked out at 0.274 E-score.

On to GGAAACTA, for which the binding signal is 0.354 E-score.

Turning to ACCGGCTG, the binding signal was -0.237 E-score.

With GCTCCGTA, the binding signal stood at 0.128 E-score.

The sequence GGCGTACA gave a binding signal of -0.151 E-score.

Turning to AGAACCCA, the binding signal is -0.0526 E-score.

Turning to CCCAAGCA, the binding signal was -0.209 E-score.

With GCTTTGAC, the binding signal is -0.0499 E-score.

AGGCTTTG showed a binding signal of -0.132 E-score.

Turning to CACCGAGA, the binding signal is -0.0831 E-score.

Sequence AAGAACCG yielded a binding signal of -0.123 E-score.

TATTGGAA came in with a binding signal of 0.0889 E-score.

CATGCTAG: the binding signal amounted to 0.148 E-score.

ACCGTCGT: the binding signal worked out at 0.0875 E-score.

For the sequence CTCCCGAC, the binding signal was 0.0178 E-score.

For TAACCAGA, the binding signal was -0.125 E-score.

Consider AGGTCGTA, for which the binding signal is 0.0515 E-score.

Sequence CCTGGGTC showed a binding signal of -0.243 E-score.

As for ACACGGCT, the binding signal was -0.175 E-score.

CTGCGACC: the binding signal worked out at 0.0299 E-score.

Turning to CGCCGGTA, the binding signal is -0.118 E-score.

With AACCACCA, the binding signal is -0.0667 E-score.

With AACCATAT, the binding signal is 0.183 E-score.

As for ATCCTCTC, the binding signal was 0.0456 E-score.

As for GCCAATGA, the binding signal was -0.306 E-score.

The sequence ATTAGAGG gave a binding signal of -0.0651 E-score.

For CACAGCTA, the binding signal stood at 0.136 E-score.

For the sequence ATGCGGTG, the binding signal is -0.19 E-score.

Turning to ACTGTTCA, the binding signal worked out at 0.0207 E-score.

Turning to CCGAAACC, the binding signal is -0.265 E-score.

ATGACTTC returned a binding signal of 0.0327 E-score.

On to AAAGAGGG, for which the binding signal was -0.21 E-score.

As to AGTTTCGA, the binding signal is 0.228 E-score.

CCAGATCA displayed a binding signal of -0.115 E-score.

Consider ATCATCCC, for which the binding signal is -0.278 E-score.

Turning to CCGTACTA, the binding signal came out at 0.201 E-score.

With CAGGCATG, the binding signal was -0.137 E-score.

Consider ACCGCACA, for which the binding signal was found to be 0.00371 E-score.

Sequence AAACTGAG gave a binding signal of -0.241 E-score.

The sequence GGGGGTTA registered a binding signal of -0.26 E-score.

ATCAGTTA showed a binding signal of 0.212 E-score.

As to TAACCTTA, the binding signal amounted to 0.0808 E-score.

Turning to AAGTATGA, the binding signal came to 0.179 E-score.

For the sequence ACGATGCA, the binding signal was -0.109 E-score.

In the case of CCCATGAC, the binding signal is -0.0352 E-score.

In turn, TGACGGAA returned a binding signal of -0.0445 E-score.

The sequence CGGTAACG yielded a binding signal of -0.245 E-score.

The sequence AACGTGCG displayed a binding signal of -0.106 E-score.

CATTAGAA registered a binding signal of 0.182 E-score.

The sequence CGAAACAA displayed a binding signal of 0.0284 E-score.

As for GACCACAA, the binding signal was -0.0328 E-score.

For CTCATGGC, the binding signal is -0.229 E-score.

In turn, TCTCCTAA displayed a binding signal of 0.147 E-score.

The sequence AATCGGTC returned a binding signal of 0.0872 E-score.

Sequence AGACCTGC displayed a binding signal of -0.148 E-score.

Sequence GGTGACAC had a binding signal of 0.0376 E-score.

Sequence ATCGGGCA had a binding signal of -0.0679 E-score.

Sequence AGCGCTGA registered a binding signal of -0.199 E-score.

The sequence GGTGGGTA showed a binding signal of -0.00366 E-score.

With ACAATAAC, the binding signal came to 0.127 E-score.

GAATTCCC had a binding signal of 0.0213 E-score.

Turning to GTTTAATA, the binding signal amounted to 0.252 E-score.

As for AGCGTGGA, the binding signal turned out to be 0.126 E-score.

The sequence ACTTGGCC yielded a binding signal of -0.207 E-score.

In the case of AGTAGTTC, the binding signal worked out at 0.398 E-score.

As to ACGTAGAG, the binding signal is -0.0363 E-score.

ACCACCCA had a binding signal of -0.0433 E-score.

AAGCATAC had a binding signal of 0.0136 E-score.

Sequence TCCGTGAA had a binding signal of -0.0258 E-score.

Turning to AAAGTATC, the binding signal was determined as 0.0933 E-score.

On to AACAAGTG, for which the binding signal is 0.142 E-score.

CCTGATGC registered a binding signal of -0.127 E-score.

With ACTCATGG, the binding signal is -0.0782 E-score.

ACGCGGGG registered a binding signal of -0.165 E-score.

GCCCAAAA: the binding signal turned out to be 0.0402 E-score.

CAGGCAAG showed a binding signal of -0.182 E-score.

ATTCCGGA came in with a binding signal of 0.185 E-score.

On to ATATGGTA, for which the binding signal amounted to 0.331 E-score.

For CATAGGGC, the binding signal is -0.0843 E-score.

In turn, TCACCACA gave a binding signal of 0.022 E-score.

CAAGCGAG: the binding signal is -0.217 E-score.

AGTCATAA gave a binding signal of -0.007 E-score.

In the case of AGGCCTTA, the binding signal is -0.156 E-score.

Consider GTAGCAAC, for which the binding signal is 0.311 E-score.

As to CACAACGC, the binding signal is -0.00345 E-score.

In the case of AGTGTGGG, the binding signal is -0.0237 E-score.

Consider CAGAGTCA, for which the binding signal was -0.0794 E-score.

On to CAATAGCC, for which the binding signal is -0.0317 E-score.

In the case of CTGAGAAG, the binding signal is -0.176 E-score.

Turning to ACAGGTAA, the binding signal turned out to be 0.103 E-score.

CGCCGAGA yielded a binding signal of -0.149 E-score.

In the case of AGGATCAA, the binding signal was -0.0242 E-score.

AATAAACG: the binding signal worked out at 0.0612 E-score.

Regarding AAGATCAG, the binding signal turned out to be 0.194 E-score.

As to CGACTTCC, the binding signal was 0.0335 E-score.

In turn, GAATTCAC displayed a binding signal of 0.074 E-score.

GCCCGCAC returned a binding signal of -0.165 E-score.

AACACTTA gave a binding signal of 0.0691 E-score.

On to AAACCCAC, for which the binding signal amounted to 0.0386 E-score.

The sequence AGTAGGCA displayed a binding signal of 0.204 E-score.

In turn, CACACATG gave a binding signal of -0.0804 E-score.

As to AGAAGAGA, the binding signal is -0.0461 E-score.

As for CAATGATA, the binding signal was 0.204 E-score.

GGAATAGA yielded a binding signal of 0.0515 E-score.

ACGGAGCC registered a binding signal of 0.0113 E-score.

Consider CAGGCACC, for which the binding signal is -0.145 E-score.

As for GTGTTCGA, the binding signal was determined as 0.0124 E-score.

For CAACACAA, the binding signal stood at 0.034 E-score.

Sequence GCGTTTCC registered a binding signal of -0.187 E-score.

With AGAAAATC, the binding signal is 0.196 E-score.

In the case of CGAAGATC, the binding signal amounted to 0.00538 E-score.

For TACGCTGA, the binding signal was found to be 0.0818 E-score.

Sequence AACCCTCC came in with a binding signal of -0.255 E-score.

In the case of TAGGTTCA, the binding signal was determined as 0.144 E-score.

As to ACAACTGC, the binding signal is 0.156 E-score.

In turn, ACCATGCT came in with a binding signal of -0.087 E-score.

For CAATTTCG, the binding signal came out at 0.0833 E-score.

With GTAGGTCA, the binding signal was -0.0909 E-score.

In the case of GGTCTGTA, the binding signal is -0.0904 E-score.

With ATGCAAGA, the binding signal came out at 0.06 E-score.

The sequence GCTACGCC returned a binding signal of -0.152 E-score.

The sequence CCGTAGAC came in with a binding signal of -0.229 E-score.

On to AACCTCGA, for which the binding signal is -0.0488 E-score.

AGCATTCA gave a binding signal of 0.053 E-score.

Consider CTGGTAAG, for which the binding signal was determined as 0.108 E-score.

In the case of CCGAGCGC, the binding signal was -0.412 E-score.

Turning to AACGCCCT, the binding signal is -0.11 E-score.

TGCTCACA gave a binding signal of -0.0913 E-score.

Consider CGAGGTAA, for which the binding signal turned out to be 0.064 E-score.

Consider AATCCTGT, for which the binding signal came out at 0.0565 E-score.

CCGTTTAC had a binding signal of -0.00858 E-score.

Sequence CGCGTTAA gave a binding signal of -0.19 E-score.

With CTAGGGTA, the binding signal was found to be 0.0219 E-score.

Sequence GGCAGTGA registered a binding signal of -0.363 E-score.

For the sequence CTGGAATA, the binding signal is 0.0986 E-score.

Take CGGATTAG: the binding signal came to 0.00878 E-score.

As for ACGTACGG, the binding signal amounted to 0.0152 E-score.

As for ATCACCCC, the binding signal is -0.221 E-score.

The sequence CCCTCTCG displayed a binding signal of -0.213 E-score.

In turn, GGCTAACA came in with a binding signal of 0.0703 E-score.

Take CCACAGAG: the binding signal is -0.209 E-score.

GATTCAGC displayed a binding signal of -0.0938 E-score.

Regarding ATGTGTAA, the binding signal turned out to be 0.216 E-score.

ACTGCCTC registered a binding signal of -0.278 E-score.

Turning to ACTTTGAG, the binding signal was -0.0751 E-score.

Sequence AACTAACT gave a binding signal of 0.352 E-score.

Take TAAAAGAA: the binding signal stood at 0.0213 E-score.

As for GGTGACTA, the binding signal was -0.0802 E-score.

CCAAGCCC yielded a binding signal of -0.263 E-score.

In turn, GAGTGACA displayed a binding signal of -0.0777 E-score.

GAACCAAC: the binding signal was -0.103 E-score.

CGAATCAA: the binding signal was -0.196 E-score.

With CGAGGCTA, the binding signal was -0.174 E-score.
